# Measured values taken from PubChem BioAssay AID504332 (National Center for Advancing Translational Sciences (NCATS), 2011).
# The whole screen tested about 350,000 compounds, of which about 31,000 (8.9%) were called active. Inconclusive results, whose numbers are uncertain, are shown with a selection of clear calls. Calls follow the shape of the dose curve; as a rule, active = well fitted inhibition curve with a large enough effect; inconclusive = small, poorly fitted or top-dose-only effect; inactive = no such curve, though single readings can be large or run the other way. Where the call is inconclusive, the potency comes from a doubtful curve fit.
# Target: Histone-lysine N-methyltransferase EHMT2 (Homo sapiens) (UniProt Q96KQ7)
# Assay: qHTS Assay for Inhibitors of Histone Lysine Methyltransferase G9a; also: nearly all actives have a fitted effect of over 75% in size
# Conditions: G9a H3K9 monomethylation, AlphaScreen, 2 h; activity, negative = inhibition: at 59 µM (top of the series) unless noted
# Procedure, shortened: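 Readings reflect AlphaScreen signal from monomethyl-H3K9 antibody detection. HMT at 20 nM; substrate b-H3K9 500 nM; cofactor SAM 20 uM; 2 h RT reaction; compounds tested as titrations in qHTS with 15 min preincubation.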
# % is scaled to controls: 0 for no effect and ±100 for the full control effect; potency is read from the fitted curve at half-maximal effect; tags tell the direction and shape of the fitted curve.
# Chain of UniProt Q96KQ7 (Q96KQ7 whole entry, looked up): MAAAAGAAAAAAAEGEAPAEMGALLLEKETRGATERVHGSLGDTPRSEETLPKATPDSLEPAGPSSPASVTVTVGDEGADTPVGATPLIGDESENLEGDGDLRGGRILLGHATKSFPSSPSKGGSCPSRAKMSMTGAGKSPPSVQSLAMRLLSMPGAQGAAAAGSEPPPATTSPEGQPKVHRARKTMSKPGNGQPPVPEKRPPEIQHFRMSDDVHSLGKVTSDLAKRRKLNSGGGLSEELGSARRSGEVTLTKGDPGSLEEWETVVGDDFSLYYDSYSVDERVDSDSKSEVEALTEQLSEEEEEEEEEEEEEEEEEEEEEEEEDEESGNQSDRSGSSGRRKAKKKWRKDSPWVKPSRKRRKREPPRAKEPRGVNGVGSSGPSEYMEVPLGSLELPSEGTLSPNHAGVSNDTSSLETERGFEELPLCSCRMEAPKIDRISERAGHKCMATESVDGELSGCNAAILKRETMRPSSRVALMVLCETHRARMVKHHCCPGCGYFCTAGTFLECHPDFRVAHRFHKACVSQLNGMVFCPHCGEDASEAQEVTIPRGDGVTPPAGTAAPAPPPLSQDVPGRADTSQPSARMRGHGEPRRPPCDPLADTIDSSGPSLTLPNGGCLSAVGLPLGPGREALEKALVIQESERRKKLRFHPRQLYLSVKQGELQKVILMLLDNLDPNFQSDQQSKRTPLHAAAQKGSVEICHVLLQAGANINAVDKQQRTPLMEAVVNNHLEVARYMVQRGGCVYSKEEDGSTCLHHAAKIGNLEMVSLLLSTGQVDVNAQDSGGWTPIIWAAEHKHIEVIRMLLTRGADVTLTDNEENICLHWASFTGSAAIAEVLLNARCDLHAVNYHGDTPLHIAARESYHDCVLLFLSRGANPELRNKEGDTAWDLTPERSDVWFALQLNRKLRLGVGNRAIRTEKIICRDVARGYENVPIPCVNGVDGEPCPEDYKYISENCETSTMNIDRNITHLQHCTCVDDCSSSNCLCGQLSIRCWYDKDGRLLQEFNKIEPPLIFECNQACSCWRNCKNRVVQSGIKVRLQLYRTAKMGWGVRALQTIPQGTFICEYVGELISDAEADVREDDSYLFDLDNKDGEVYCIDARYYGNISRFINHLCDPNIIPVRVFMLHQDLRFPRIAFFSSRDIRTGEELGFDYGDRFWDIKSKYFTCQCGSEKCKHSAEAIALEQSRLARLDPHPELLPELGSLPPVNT
SMILES,Potency,"activity, negative = inhibition"
C=CCc1cc(/C=C/c2nc(O)c([N+](=O)[O-])c(=O)[nH]2)cc(OC)c1O,active: 50.1 µM,
CCc1nnc(NS(=O)(=O)c2ccc(NC(=O)OC)cc2)s1,active: 17.8 µM,
COc1ccccc1NS(=O)(=O)CC12CCC(CC1=O)C2(C)C (stereo not given),"inconclusive: 0.355 µM [inhibitor, partial curve, poor fit]",
COc1cccc(CN(C(=O)c2cccc(C)c2)C2CCS(=O)(=O)C2)c1 (stereo not given),inactive,
COc1ccc(OC)c(-c2noc(N3CCN(c4cccc(C)c4C)CC3)n2)c1,"inconclusive: 7.94 µM [inhibitor, partial curve, poor fit]",
COc1ccc(C(=O)/C=C/c2ccc(OC(=O)c3cc(OC)c(OC)c(OC)c3)cc2)cc1,"inconclusive: 0.631 µM [inhibitor, partial curve, poor fit]",
CC12CCC(=O)N1C(C(=O)N1CCN(c3ccccc3)CC1)CS2 (stereo not given),"inconclusive: 79.4 µM [inhibitor, partial curve, poor fit]",
COC(=O)CC1Oc2ccc(C)cc2-n2cc(-c3ccc(C)cc3)nc21 (stereo not given),"inconclusive: 17.8 µM [inhibitor, partial curve, poor fit]",
Cc1ccc(NC(=O)CN2C(=O)S/C(=C\c3ccc(-c4cccc(C(=O)O)c4C)o3)C2=O)cc1C,active: 17.8 µM,
COC(=O)c1ccccc1NC(=O)C1=C(C)C(=O)OC12CCC(C)CC2 (stereo not given),inactive,
O=C(Oc1ccc(=O)n(-c2ccccc2)n1)c1ccc(F)cc1,"inconclusive: 44.7 µM [inhibitor, partial curve]",
C=CCn1cnc2c(nnn2Cc2ccc(F)cc2)c1=O,inactive,
O=C(COc1cccc2ccccc12)NNC(=O)c1cnccn1,inactive,
COc1ccc(-c2nc(SCC(=O)Nc3ccc4c(c3)OCCO4)c(-c3ccccc3)[nH]2)cc1,inactive,
Cc1ccc(S(=O)(=O)NN/C(=N/S(=O)(=O)c2ccccc2)c2ccccc2)cc1,"inconclusive: 39.8 µM [inhibitor, full curve, poor fit]",
C=CCN(CC=C)S(=O)(=O)c1ccc2nc(NC(=O)C3CCCO3)sc2c1 (stereo not given),active: 1.26 µM,
COc1ccc(/C=N/Nc2nnc(Cc3ccc(OC)c(OC)c3)c(=O)[nH]2)cc1,"inconclusive: 0.158 µM [inhibitor, full curve, poor fit]",
CC1(C)CSC(=NCCc2ccccc2)N1C(=O)c1ccc(C#N)cc1,active: 2.82 µM,
O=C(O)c1cc(-c2ccc(/C=N/Nc3ccc([N+](=O)[O-])cn3)o2)ccc1Cl,active: 79.4 µM,
N=c1n(CCN2CCCCC2)c2ccccc2n1CC(O)c1cccc(Br)c1 (stereo not given),active: 50.1 µM,
CCCN1CCc2c(sc3nc(SCC)n(-c4ccccc4)c(=O)c23)C1,"inconclusive: 89.1 µM [inhibitor, single point]",
COc1ccccc1NS(=O)(=O)c1cc2c(cc1Cl)NC(=O)CO2,"inconclusive: 7.94 µM [inhibitor, partial curve, poor fit]",
Cc1c(N/C=C/C(=O)c2ccc(Cl)cc2)c(=O)n(-c2ccccc2)n1C,"inconclusive: 89.1 µM [inhibitor, single point]",

SMILES,Potency,"activity, negative = inhibition"
Cc1c(NC(=S)NC(=O)c2ccccc2Br)c(=O)n(-c2ccccc2)n1C,"inconclusive: 89.1 µM [inhibitor, single point]",
S=C(NCc1ccc(Cl)cc1)NN1CCOCC1,"inconclusive: 39.8 µM [inhibitor, partial curve, poor fit]",
CCOC(=O)Cn1nnnc1CN(Cc1ccc(OC)cc1)Cc1cc2cc(CC)ccc2[nH]c1=O,"inconclusive: 50.1 µM [inhibitor, partial curve, poor fit]",
CN(C)CC/C=C1\c2ccccc2COc2ccc(CC(=O)O)cc21,inactive,
COCCNc1ncnc2ccc(-c3ccccc3C)cc12,,inactive: 6.26% [at 0.501 µM]
O=C(NCc1ccco1)c1cccnc1-c1nc2ccccc2s1,"inconclusive: 2.51 µM [inhibitor, partial curve, poor fit]",
O=c1cc[nH]c2c1ccc1cccnc12,,inconclusive: -52.5% [inhibitor] [at 2.33 µM]
CN(C)S(=O)(=O)N(CC(=O)Nc1ccc(S(=O)(=O)N2CCCC2)cc1)c1ccccc1,inactive,
Cc1cccc(OCc2n[nH]c(=S)n2C2CCCCC2)c1,active: 1.78 µM,
COC(=O)c1cc(O)c(O)c(O)c1,active: 39.8 µM,
COc1ccccc1N1CCN(C(=O)Cn2ncc3c(=O)oc4ccc(C)cc4c32)CC1,inactive,
CC(C)Oc1ccc(CNC(=O)c2ccc(Cn3c(=O)c4cccn4c4cccnc43)cc2)cc1,inactive,
COc1ccccc1NC(=O)CSC1CC(=O)N(c2ccc3c(c2)OCO3)C1=O (stereo not given),"inconclusive: 2.24 µM [inhibitor, partial curve]",
Cc1ccc(NC(=O)CSc2ccc(-c3sc(-c4ccccc4)nc3C)nn2)cc1F,inactive,
Cc1cc(C(=O)OCC(=O)c2ccc3c(c2)NC(=O)CO3)c2ccccc2n1,"inconclusive: 3.16 µM [inhibitor, single point]",
O=C1C=C(N2CCCCC2)C2(CCCCC2)O1,inactive,
CC(C)(Oc1ccc(Cl)cc1)C(=O)NCC(c1ccco1)N1CCCCC1 (stereo not given),inactive,
N#CC1=C(Nc2ccccc2)SC=C(c2ccc(Br)cc2)N=C1N1CCOCC1,,inconclusive: -64.1% [inhibitor]
Cc1csc(NC(=O)CN2C(=O)C3CC=CCC3C2=O)n1 (stereo not given),"inconclusive: 89.1 µM [inhibitor, single point]",
O=C(CSC1=Nc2ccccc2C2CC=NN12)Nc1ccc2c(c1)OCO2 (stereo not given),"inconclusive: 44.7 µM [inhibitor, partial curve, poor fit]",
CCCc1cnc2c(c1SCc1ccc(C(F)(F)F)cc1)c(=O)n(C)c(=O)n2C,"inconclusive: 3.55 µM [inhibitor, partial curve, poor fit]",
COC(=O)c1ccc(C(C2C(=O)CC(C)(C)CC2=O)C2C(=O)CC(C)(C)CC2=O)cc1,"inconclusive: 50.1 µM [inhibitor, partial curve]",
